The results in this text go back to PubChem BioAssay AID1963576 (National Center for Advancing Translational Sciences (NCATS), 2024).

Each structure is given as a SMILES string. The whole screen tested about 46,000 compounds, of which about 60 (0.1%) were called active. Not shown: some 3% with an inconclusive outcome. Calls come from the whole dose curve; as a rule, active = well fitted inhibition curve with a large enough effect; inconclusive = small, poorly fitted or top-dose-only effect; inactive = no such curve, though single readings can be large or run the other way. The list shows a part of the results.

This experiment in a line: Primary qHTS assay for Inhibitors of ovarian cancer metastasis using an organotypic tumor microenvironment (TME) model.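 For activity change, negative = inhibition: plate controls were DMSO wells for no effect and tomatine positive control wells for full effect.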 Note: nearly all actives have a fitted effect of over 65% in size. Particulars: SKOV3ip1-GFP adhesion/invasion on 3D omental model, fluorescence; series mostly up to 45.8 µM; activity change, negative = inhibition: at the top concentration. An outline of the steps: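 A 3D layer of primary human omental fibroblasts, mesothelial cells, fibronectin and collagen I, grown 48 hr, received SKOV3ip1-GFP cells in serum-free medium plus compounds at 0.36-46 umol/L. After 2 hr RT and 16 hr 37 C, fixed adherent GFP cells were counted; normalized to DMSO and tomatine.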
(In general: Quantitative high-throughput screening tests each substance at several concentrations.)
In the case of `Cc1cccc(NC(=O)C2CCCN(S(=O)(=O)c3cnc[nH]3)C2)c1C` (stereo not drawn), the “activity change, negative = inhibition” value was inactive: 1.21%.
On the same count and under the same terms, for `Nc1nnc(SCC(=O)Nc2ccccc2C(F)(F)F)s1` the value was inactive: -22.9%; for `COC(=O)c1n[nH]n(-c2ccccc2)c1=O`, inactive: -6.93%.
Turning to `CCC(C)NC(=O)c1cnn(-c2ccc(Cl)cc2)c1C1CCN(C(=O)OC(C)(C)C)CC1` (stereo not drawn), the compound was called inactive.
`O=C(NCCc1ccc(Cl)cc1)c1ccc(CS(=O)Cc2cccc(Cl)c2)o1` (stereo not drawn): the “activity change, negative = inhibition” value is inactive: 3.11%.
The same measure, in the same setting: for `Cc1oc(-c2ccc(C(=O)Nc3cc(F)ccc3F)cc2)nc1COc1ccccc1` the value was inactive: 0.89%.
Still for that read-out and setting: for `Cc1ccc(C(=O)N(Cc2ccc(N(C)C)cc2)Cc2ccco2)cc1` the value was inactive: -2.1%.
With `CCOC(=O)c1cc(NC(=O)c2ccc(F)cc2)c(=O)n2c1oc1ccccc12`, the call was inactive.
For `Cn1c(=O)c2cc(C(=O)N3CCN(c4ccc(Cl)cc4)CC3)sc2c2ccccc21`, the “activity change, negative = inhibition” value is inactive: -8.86%.
On to `O=C(c1ccc(OCCN2CCCCC2)cc1)c1c(-c2ccc(O)cc2)sc2cc(O)ccc12`, for which the “activity change, negative = inhibition” value was inactive: -6.78%.
For `Cc1nc(-c2ccccc2)sc1CCNS(=O)(=O)c1ccc(Br)cc1`, the “activity change, negative = inhibition” value was inactive: 19.4%.
The same measure, in the same setting: the result for `O=C1c2ccccc2-c2n[nH]c3cccc1c23` reads inactive: -28.3%.
As for `CCCn1c2ccccc2c2cnn(CC(=O)NCCc3ccc(OC)cc3OC)c(=O)c21`, the call was inactive.
Regarding `CCN(CC)c1nn2c(=O)c(C(=O)NCc3ccc(F)cc3)cnc2s1`, the “activity change, negative = inhibition” value is inactive: 6.82%.
Still for that read-out and setting: for `CCNC(=O)Cc1ccc(NC(=O)N2CCCCc3ccccc32)cc1` the value was inactive: 15%; for `COc1ccc(CC(=O)NCCc2csc(-c3ccc(Cl)cc3)n2)cc1`, inactive: -0.707%.
As for `CCn1nc(C)c(CCN(C)C(=O)Nc2cc(Cl)ccc2C)c1C`, the “activity change, negative = inhibition” value was inactive: 5.1%.
As to `Cc1ccc(-n2nc(CO)c(C(=O)NCc3cccs3)n2)cc1`, the result was inactive.
`O=C(Nc1ccc(Cl)cc1)N1CCN(c2ccc3nnc(-c4ccc(F)cc4)n3n2)CC1`: the “activity change, negative = inhibition” value was inactive: 15.6%.
For `Cc1ccc(CNC(=O)CCS(=O)(=O)c2cc(Br)cc3c2N(C(=O)C2CC2)CC3)cc1`, the “activity change, negative = inhibition” value is inactive: 8.15%.
The same measure, in the same setting: for `COc1cc2c(c(OC)c1OC)-c1ccc(OC)c(=O)cc1[C@@H](NC(C)=O)CC2` the value was inactive: 12.5%; for `CCC(=O)N1CCc2cc(S(=O)(=O)CCC(=O)NCc3ccccc3OC)ccc21`, inactive: 68.3%.
As to `COc1ccccc1Nc1cc(C(=O)NCc2cccs2)c2ccccc2n1`, the compound was called inactive.
Turning to `Cc1ccc(NCc2nc3ccccc3n2CCOc2ccccc2)cc1`, the “activity change, negative = inhibition” value is inactive: -0.162%.
Turning to `Cc1cc(NC(=O)Nc2nc3c(s2)CCCCCC3)ccc1Br`, the compound was classed as inactive.
As to `CCCCn1c(CNC(=O)c2ccc(OC)cc2)nnc1SCC(=O)Nc1ccc(OC)cc1`, the “activity change, negative = inhibition” value is inactive: 23.6%.
The same measure, in the same setting: the result for `COc1ccc(CC2SC(=O)NC2=O)cc1C(=O)NCc1ccc(C(F)(F)F)cc1` (stereo not drawn) reads inactive: 1.54%; that for `CN(C)S(=O)(=O)c1ccc2c(c1)N(CC(=O)N1CCN(c3ccc(F)cc3)CC1)CCS2`, inactive: 16.6%; that for `Cc1ccc(-c2nc(CS(=O)CC(=O)N3CCN(c4ccc(Cl)cc4)CC3)c(C)o2)cc1` (stereo not drawn), inactive: -15.6%.
Same read-out and setting: the result for `CC1(C)CC(=O)c2c(oc3c(Cl)cc(NS(=O)(=O)c4ccc(Cl)cc4)cc23)C1` reads inactive: 1.43%; that for `COc1ccc(-c2noc(-c3nnn(-c4cc(C)ccc4C)c3N)n2)cc1`, inactive: -2.83%.
The same measure, in the same setting: the result for `COc1ccccc1-c1nnc(C2CCN(C(=O)c3ccc(C)cc3)CC2)o1` reads inactive: 6.01%; that for `NC(=O)CSc1ncc2c(n1)-c1ccccc1N(Cc1cccc(F)c1)S2(=O)=O`, inactive: -10.7%; that for `COc1ccc2nc3oc(C(=O)NCc4ccccc4OC)cc3cc2c1`, inactive: -6.46%.
As for `Cc1cc(NC(=O)CSc2ncc(C(=O)Nc3ccc(F)cc3)c(=O)n2C)no1`, the “activity change, negative = inhibition” value is inactive: -3.04%.
On the same count and under the same terms, for `Cc1nc2ccccc2c(=O)n1-c1ccc(NC(=O)C(F)(F)F)cc1` the value was inactive: -3.73%.
The same measure, in the same setting: the result for `Cc1ccc(-n2ncc(C(=O)NCCc3ccsc3)c2C2CCN(C(=O)OC(C)(C)C)CC2)cc1C` reads inactive: 27.5%; that for `CCN(CC)CCNC(=O)c1ccc(Cn2c(=O)c3cccn3c3cccnc32)cc1`, inactive: -4.88%; that for `CC1CCN(c2ccc(-c3nc(C(C)C)no3)cc2[N+](=O)[O-])CC1`, inactive: -4.57%.
For `CNC(=O)c1ccc(N2C(=S)N(c3cnc(C#N)c(C(F)(F)F)c3)C(=O)C23CCC3)cc1F`, the “activity change, negative = inhibition” value is inactive: -6.08%.
The same measure, in the same setting: for `CCOc1ccccc1NC(=O)c1c(NCc2sccc2C)sc2c1CCCCC2` the value was inactive: -11.7%.
Regarding `CCCNC(=O)c1ccc(-n2c(-c3ccccc3)cc3c2CCC(C)C3)cc1` (stereo not drawn), the “activity change, negative = inhibition” value is inactive: -27%.
As to `O=c1oc2ccc(Br)cc2cc1-c1csc(-c2ccc(Cl)cc2)n1`, the “activity change, negative = inhibition” value was inactive: -3.11%.
Take `O=C(CC(NCc1cccnc1)C(=O)O)Nc1ccc(F)cc1` (stereo not drawn): the result was inactive.
The same measure, in the same setting: the result for `CCCN1C(=O)C2(c3ccccc31)c1c(oc3ccccc3c1=O)C(=O)N2CCO` (stereo not drawn) reads “inactive”.
In the case of `Cc1cccc(N2CCN(C(=O)CS(=O)(=O)c3cccc4nsnc34)CC2C)c1` (stereo not drawn), the “activity change, negative = inhibition” value is inactive: -28.3%.
Consider `C=Cc1ccc(Cn2c(C(=O)O)c(CNCc3cc(Br)ccc3OC)c3ccc(C)cc32)cc1`, for which the compound was classed as inactive.
Same read-out and setting: the result for `COc1cc(-c2nnc(SCCOc3cc(C)cc(C)c3)o2)cc(OC)c1OC` reads “inactive”.
As to `COc1ccc(-c2cc3ccc(O)c(CN4CCC(C)CC4)c3oc2=O)cc1OC`, the “activity change, negative = inhibition” value was inactive: 6.04%.
Consider `Cc1cccc(Cn2cccc2CNS(=O)(=O)c2ccc(Br)cc2)c1`, for which the “activity change, negative = inhibition” value was inactive: -1.33%.
Still for that read-out and setting: for `CC(NC(=O)CN1C(=O)c2cccnc2Oc2ccc(Cl)cc21)c1ccccc1` (stereo not drawn) the value was inactive: -17.7%.
On to `Cc1cc(OC(C)C(=O)Nc2sc3c(c2C(N)=O)CCCC3)ccc1Cl` (stereo not drawn), for which the outcome was inactive.
Same read-out and setting: the result for `Cc1ccc(C(C)C)c(OC(C)C(=O)NCC2(N(C)C)CCCCC2)c1` (stereo not drawn) reads “inactive”.
For the compound `Cc1ccccc1CN1C(=O)c2ccccc2S(=O)(=O)c2ccc(C(=O)OCC3CCCO3)cc21` (stereo not drawn), the “activity change, negative = inhibition” value is inactive: 1.91%.
`COc1ccc(S(=O)(=O)Nc2cc(S(=O)(=O)c3ccccc3)c(O)c(C)c2C)cc1`: the “activity change, negative = inhibition” value is inactive: 2.83%.
Still for that read-out and setting: for `Cc1ccc(Cn2c(C(C)NC(=O)c3ccccc3)nc3ccccc32)cc1` (stereo not drawn) the value was inactive: 15.2%; for `CCOc1ccccc1CNc1nc2nc(C)cc(C)n2n1`, inactive: -0.522%.
For `Cn1ccc2cc(S(=O)(=O)N3CCN(C(=O)Nc4ccc(F)cc4F)CC3)ccc21`, the “activity change, negative = inhibition” value was inactive: -12.8%.
The same measure, in the same setting: for `CCC1CCCCN1C(=O)CSc1nc2c([nH]c3ccccc32)c(=O)n1-c1ccc(OC)cc1` (stereo not drawn) the value was inactive: -1.08%.
Consider `CCOC(=O)c1c(C)[nH]c(CCC(=O)Nc2ccc(OC)c(OC)c2)c1C`, for which the result was inactive.
For the compound `CC(C)NC(=O)CCC(=O)N1Cc2ccccc2Oc2ncccc21`, the “activity change, negative = inhibition” value is inactive: 16.5%.
Take `Cc1noc(C)c1S(=O)(=O)N1CCC(C(=O)N2CCN(c3cccc(C(F)(F)F)c3)CC2)CC1`: the compound was classed as inactive.
Take `CCn1cc2nc(SCC(=O)Nc3ccccc3C(F)(F)F)n(Cc3ccc(C)cc3)c(=O)c2n1`: the “activity change, negative = inhibition” value is inactive: 4.24%.
